Paper PMC4336329 (PLoS ONE, 2015)
Hit rate of the full screen: of about 310,000 compounds, about 14,000 (4.5%) showed an effect of 50% or more. The effect is printed as a negative number. The list shows a part of the results.

biological target: human ether-à-go-go-related gene (hERG) potassium channel (human, UniProt Q12809); assay: primary screen, population patch clamp on CHO cells stably expressing hERG
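Further: peak tail current of the secondary pulse compared with the same well before compound.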

Sequence of human ether-à-go-go-related gene (hERG) potassium channel (Q12809 whole entry, looked up): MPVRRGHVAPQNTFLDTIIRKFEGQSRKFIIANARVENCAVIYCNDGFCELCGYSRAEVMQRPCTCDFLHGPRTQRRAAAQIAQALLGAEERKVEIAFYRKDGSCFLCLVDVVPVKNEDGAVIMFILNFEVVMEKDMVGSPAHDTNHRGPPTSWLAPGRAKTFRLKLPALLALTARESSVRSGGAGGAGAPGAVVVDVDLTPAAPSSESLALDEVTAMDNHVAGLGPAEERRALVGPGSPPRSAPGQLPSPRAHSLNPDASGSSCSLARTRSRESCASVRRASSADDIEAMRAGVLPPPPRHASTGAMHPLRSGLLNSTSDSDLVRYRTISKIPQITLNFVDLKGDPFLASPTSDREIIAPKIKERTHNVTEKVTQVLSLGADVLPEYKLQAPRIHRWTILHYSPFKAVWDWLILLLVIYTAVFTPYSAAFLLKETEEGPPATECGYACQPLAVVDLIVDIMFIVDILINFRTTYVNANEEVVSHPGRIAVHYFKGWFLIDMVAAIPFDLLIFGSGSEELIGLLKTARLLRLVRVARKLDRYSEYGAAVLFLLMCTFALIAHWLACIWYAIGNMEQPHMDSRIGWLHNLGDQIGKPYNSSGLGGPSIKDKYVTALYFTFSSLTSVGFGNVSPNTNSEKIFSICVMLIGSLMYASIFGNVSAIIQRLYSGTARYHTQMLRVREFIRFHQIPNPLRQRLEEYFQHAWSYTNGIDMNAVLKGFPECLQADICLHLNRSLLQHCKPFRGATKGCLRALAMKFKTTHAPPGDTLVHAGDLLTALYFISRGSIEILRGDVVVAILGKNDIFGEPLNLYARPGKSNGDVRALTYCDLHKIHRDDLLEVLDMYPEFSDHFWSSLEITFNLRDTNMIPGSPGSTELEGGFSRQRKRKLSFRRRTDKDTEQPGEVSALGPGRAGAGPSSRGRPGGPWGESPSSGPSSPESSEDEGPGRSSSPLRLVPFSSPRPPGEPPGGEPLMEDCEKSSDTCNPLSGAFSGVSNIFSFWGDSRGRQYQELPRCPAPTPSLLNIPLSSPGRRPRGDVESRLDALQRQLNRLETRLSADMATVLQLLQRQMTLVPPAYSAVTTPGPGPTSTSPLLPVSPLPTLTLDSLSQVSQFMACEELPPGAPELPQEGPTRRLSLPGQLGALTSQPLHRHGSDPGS

Structure (SMILES) | hERG current change (%, negative = inhibition) at 10uM [%]
COc1ccc2c(c1)C(=O)N(c1ccccc1OC)C(=O)C2 | 15.1
CC(NC(=O)CNC(=O)[C@@H]1Cc2ccccc2CN1)c1ccccc1 (some centres unmarked) | 8.98
CCc1cccc(NC(=O)COC(=O)C2CCN(c3ccc(C(F)(F)F)cn3)CC2)c1 | -4.68
CCCCOc1ccc(C(=O)N(Cc2ccco2)C2CCS(=O)(=O)C2)cc1 (centres unmarked) | -30.3
Clc1ccc2c(N/N=C/c3cccnc3)ccnc2c1 | -42.7
CCOC(=O)C(CC)(CCC(=O)O)c1csc(Nc2ccc(C)cc2)n1 (centres unmarked) | 16.5
O=C(NC1CCCc2ccccc21)C1CCN(S(=O)(=O)c2cnc[nH]2)CC1 (centres unmarked) | 5.04
CNC(=O)C(Sc1nc(C)nc2c1oc1ccccc12)C(C)=O (centres unmarked) | 2.63
CCc1nnc(NC(=O)c2sc3nc4c(cc3c2N)CCCCCC4)s1 | 4.75
CCOC(=O)C1=C(C)Nc2nc3ccccc3n2C1c1ccc(O)cc1 (centres unmarked) | 7.44
CC(=O)C1=C(O)C(=O)N(Cc2cccnc2)C1c1ccc(Cl)cc1 (centres unmarked) | 6.03
CCOCc1nnc(NC(=O)C2CCN(C(=O)c3ccco3)CC2)s1 | 19.8
Cc1ccc(C)c(Nc2c([N+](=O)[O-])c(=O)oc3ccccc23)c1 | -4.01
CCOc1ccc(-n2nnnc2SCC(=O)Nc2cccc(O)c2)cc1 | 0.0292
O=C(COc1ccc(Br)cc1)Nc1ccc2oc(=O)ccc2c1 | -7.15
OCc1nc2ccccc2n1C/C=C/c1ccccc1 | -8.38
Cc1[nH]n(-c2ccccc2)c(=O)c1C=NCc1ccco1 | -10.7
O=C(CSc1nn(-c2ccccc2)c(=S)s1)NC1CCS(=O)(=O)C1 (centres unmarked) | 1.41
CCS(=O)(=O)c1nc(S(=O)(=O)c2ccc(C)cc2)c(N2CCC(C)CC2)s1 | -3.02
COc1cccc(C(=O)C2CCCN(Cc3cn[nH]c3C3CCCCC3)C2)c1 (centres unmarked) | -32.1
COc1cccc(CN2CCN(Cc3cc4ccccc4[nH]3)CC2CCO)c1 (centres unmarked) | -59.7
O=C(/C=C/c1cccc(F)c1)c1ccc(N2CCOCC2)cc1 | -6.24

Structure (SMILES) | hERG current change (%, negative = inhibition) at 10uM [%]
Cn1c(=O)c(C(=O)NNC(=O)c2ccccc2Br)c(O)c2ccccc21 | -1.64
COc1ccc(C(=O)Nc2c(Cl)cc(Cl)cc2C(=O)NCc2ccco2)cc1 | 23.7
Br.CC(C)CC1CC(C)(c2csc(NNC(=O)c3ccccc3)n2)OC1=O (centres unmarked) | -74.5
CC(=O)c1c(C)[nH]c(C(=O)Nc2cccc(C)c2C)c1C | 16.8
CCOCCCNC(=O)C1CCN(c2cc(C)nc3c(-c4ccc(OC)c(OC)c4)c(C)nn23)CC1 | -7.5
COc1ccc(CC(=O)NCC(=O)NC(Cc2ccccc2)C(=O)O)cc1 (centres unmarked) | 26.7
COCCN(Cc1cc2cc(C)ccc2[nH]c1=O)S(=O)(=O)c1ccc(Cl)cc1 | 16.4
CC(C)(C)c1ccccc1NC(=S)NC1CCCCC1 | 6.02
O=C(CSc1nc2ccccc2n1CC(=O)N1CCCC1)Nc1ccc2c(c1)OCO2 | -37.7
O=C1CS/C(=N\C(=O)N2c3ccccc3Sc3ccccc32)N1 | 5.96
C=CCOC(=O)c1[nH]c2c(c1C)C(=O)CC(c1ccco1)C2 (centres unmarked) | -1.12
Cc1ccc(SCCC(=O)NC2CC2)cc1 | 14.9
COc1cc(/C=N/Nc2nc3ccccc3s2)ccc1OC(=O)c1ccccc1F | 5.94
CCN1CCN(C(=O)c2cc3c(s2)-c2ccccc2S(=O)(=O)C3)CC1 | -11.2
COCCCNC(=O)Cn1cc(/C=C2\C(=O)NC(=O)N(c3ccccc3F)C2=O)c2ccccc21 | 11.6
O=C(NCCc1ccccc1)c1cc(=O)c2ccccc2o1 | -10.3
O=C(O)CCC(=O)NCC1OCCc2ccccc21 (centres unmarked) | 8.33
CCC(=O)Nc1cc(NC(=O)CSc2ncc(-c3ccc(F)cc3)n2Cc2ccco2)ccc1C | -25.9
CSc1ccc(NC(=O)CC(C)=O)cc1 | -21.3
O=C(CCN1C(=O)c2ccccc2C1=O)N1CCCCCC1 | 0.431
Cc1ccc(-c2nn(CC(=O)N(C)C)c(=O)c3ccccc23)cc1S(=O)(=O)N(C)C | -10
Cc1onc(-c2ccccc2Cl)c1C(=O)Nc1ccc(OCC(=O)N2CCOCC2)cc1 | -3.95

Structure (SMILES) | hERG current change (%, negative = inhibition) at 10uM [%]
COc1cc(NC(=S)N2CCc3ccccc3C2)cc(OC)c1 | -23.6
Cc1ccc(CNC(=O)CC2Nc3c4ccccc4nc(=S)n3C2=O)cc1 (centres unmarked) | 59.6
CCOc1ccc(-n2c(=O)c3sccc3n(CC(=O)Nc3cccc(OC)c3)c2=O)cc1 | 8.63
CCOC(=O)c1c(-c2ccc(OC)cc2)oc2ccc(OC(=O)N(C)C)cc12 | 10.1
CC(=O)Oc1ccc(-c2csc(Nc3ccc(Cl)cn3)n2)cc1 | 18.4
COc1ccc(CN2CCN(S(=O)(=O)c3ccccc3)CC2)c(OC)c1.O=C(O)C(=O)O | -63.5
COc1cc2cc3c(N)c(C(=O)Nc4sc(C)c(C)c4C#N)sc3nc2cc1OC | -36.7
Cc1[nH]c2ccccc2c1C1(O)C(=O)N(Cc2ccc3c(c2)OCO3)c2ccccc21 (centres unmarked) | 7.27
Cc1ccc(C)c(S(=O)(=O)N(C(=O)c2ccncc2)c2ccc(OC(=O)c3ccncc3)cc2)c1 | 5.8
Cc1[nH]nc(Nc2ccc(Br)cc2)c1[N+](=O)[O-] | -8.57
CCNc1nc(NCC)nc(N/N=C/c2ccc(Br)cc2)n1 | -74.6
Cc1ccc(-c2nnc(NC(=O)Cc3ccc(F)cc3)o2)c(C)c1 | 12
CCn1nc(C)c(CN2CCc3c([nH]c4ccccc34)C2C(C)(C)C)c1C (centres unmarked) | -3.17
Cc1nc2ccccc2cc1C(=O)N/N=C/c1ccc([N+](=O)[O-])cc1 | -12.2
N#Cc1c(-c2ccccc2)c(-c2ccccc2)n[nH]c1=O | 19.7
COc1ccccc1CC(=O)NCC1CCCO1 (centres unmarked) | 3.69
Cc1ccccc1Nc1nc(N)nc(CSc2nnc(C)n2C)n1 | 20.6
CCCCN(CC)CCNC(=O)CCC(=O)Nc1ccc2nc(N3CCN(C)CC3)cc(C)c2c1 | 12.3
CCC(C)N(C)Cc1cccc(C2(O)CCN(S(=O)(=O)c3ccc(F)cc3)CC2)c1 (centres unmarked) | -69.3
C/C(=N\NC(=O)Cn1c(C)nc2ccccc21)c1cccs1 | -12.8
CC(C)C(=O)N1CCC(c2nc(-c3ccc(S(=O)(=O)N4CCCC4)cc3)no2)CC1 | -5.76
O=C(Nc1nnc(-c2ccc(Cl)cc2)o1)c1cccc(N2C(=O)CCC2=O)c1 | 12.2

Structure (SMILES) | hERG current change (%, negative = inhibition) at 10uM [%]
COc1ccc(C(=O)NCC(c2cccnc2)N2CCN(c3ccccc3)CC2)cc1OC (centres unmarked) | -9.6
Cc1cccc(C(=O)N[C@H](C(=O)Nc2nc(C)cs2)C(C)C)c1 | -5.19
Cc1cc(C)c(C2C(C#N)=C(N)Oc3n[nH]c(C)c32)cc1CN1CCCC1 (centres unmarked) | -14.1
Cc1cccnc1NC(=O)Nc1ccc(Cl)cc1 | 9.39
COc1ccc(C2c3ccsc3CCN2C(=O)C(C)(C)C)cc1 (centres unmarked) | -15.4
COc1cc(C(=O)NCC(=O)N/N=C/c2cccnc2)cc(OC)c1OC | 10.4
Cc1ccc(CN2CC(C(=O)NNC(=O)c3ccc(F)cc3)CC2=O)cc1 (centres unmarked) | 8.82
CN(C)/C=C/C(=O)c1ccc2noc(-c3ccccc3)c2c1 | -62.6
Cc1cc(=O)oc2cc(OC(C)C(=O)NCC3CCC(C(=O)O)CC3)ccc12 (centres unmarked) | -7.56
COC(=O)c1ccc(NC(=O)CSc2nnc(COc3ccccc3)n2C)cc1 | 19
C=CC[C@@H]1C=C[C@H](O/N=C/c2ccc(C(=O)N3[C@H](c4ccc(C)cc4)[C@@H](C)CC[C@H]3C(=O)OC)cc2)[C@@H](CO)O1 | -0.313
COC(=O)C1=C(C)N(C)C(C)=C(C(=O)OC)C1c1ccc(C(=O)OC)cc1 | 8.97
COc1ccccc1NS(=O)(=O)c1cccc(C(=O)N2CCCCCCC2)c1 | -19.7
O=C(c1ccc(Br)o1)N1CCN(C/C=C/c2ccccc2)CC1 | -61.8
CN(C(=O)COC(=O)C1c2ccccc2Oc2ccccc21)C1CCS(=O)(=O)C1 (centres unmarked) | 4.56
O=C(NCc1ccccc1Cl)NCc1ccccc1Cl | -9.85
Cc1oc2ccc(OCc3ccc(F)cc3)cc2c1C(=O)O | 8.17
COc1cccc(C(=O)N/N=C/C(Br)=C/c2ccccc2)c1 | -42.3
CCCCc1nnc(NC(=O)C(C)Sc2nc(N)cc(=O)[nH]2)s1 (centres unmarked) | -7.65
O=C(CCN1CCCCC1)N/N=C/c1c[nH]c2ccccc12 | 5.39
